From the supplement of paper PMC3334620
Whole data set: some 33,000 sequences, median “E-score (-0.5 to 0.5)” near -0.017, cut for the highest 2% near 0.3. This is one part of the list.

Molecular target: T1, Sut1 (UniProt P53032)
T1 sequence: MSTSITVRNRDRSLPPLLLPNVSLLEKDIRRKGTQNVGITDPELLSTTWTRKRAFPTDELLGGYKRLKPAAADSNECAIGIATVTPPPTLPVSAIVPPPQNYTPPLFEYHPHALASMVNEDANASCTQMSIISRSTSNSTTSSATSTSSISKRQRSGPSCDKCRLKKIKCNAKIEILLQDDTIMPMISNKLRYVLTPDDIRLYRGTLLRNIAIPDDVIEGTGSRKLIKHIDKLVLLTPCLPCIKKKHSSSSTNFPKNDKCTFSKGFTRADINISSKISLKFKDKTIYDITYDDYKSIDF
Assay: PBM E-score (8-mer binding enrichment) (E-score (-0.5 to 0.5)); higher = stronger / more preferred TF binding; most listed sequences are background and not binding sites
Settings: protein concentration: 200 nM; construct: GST-full length
Procedure: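 Universal 'all 10-mer' protein binding microarrays (Agilent AMADID 015681) probed with GST-tagged S. cerevisiae TFs (full-length or DBD) made by in vitro transcription/translation (PURExpress), about 100-200 nM. Bound TF was detected with fluorescent anti-GST. Each ungapped 8-mer (which stands for itself and its reverse complement) is scored by the PBM enrichment score (E-score), a modified Wilcoxon-Mann-Whitney statistic from -0.5 to +0.5, computed with the Universal PBM Analysis Suite. Scale: above 0.35 generally sequence-specific binding.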

Point of comparison: GAGCTTTA, “PBM E-score” value 0.0948. Against it:
- GCCGGCTA — lower, 0.0118
- ACGGTCCC — lower, -0.1
- AGCAAACC — higher, 0.105
- CTGACGAA — lower, -0.097
- AGAGTCGA — lower, -0.00899
- GCACTGCA — lower, -0.173
- GACGCTAA — lower, -0.156
- CCCCACCA — lower, -0.165
- ATGGGATC — lower, -0.0599
- ATCTAGTC — higher, 0.181
- CGTTATGA — lower, 0.0561
- CGTCCTCC — lower, -0.109
- AGCTAAAC — lower, 0.0208
- AAACTTAC — higher, 0.198
- AAAACTGT — lower, 0.0755
- CTCGATCA — higher, 0.105
- ACGCGAAA — lower, 0.0318
- AGTCACTC — lower, 0.0366
- AGTTGATA — higher, 0.194
- CTGAACAG — lower, -0.0485
- GACTCACA — lower, 0.0376
- GTCCCGCA — lower, -0.159
- GCGCTGCA — lower, -0.114
- CTGGAACA — lower, 0.047
- CGCGCTGC — lower, -0.2
- CCCGCTGC — lower, -0.256
- CACCTGTC — lower, -0.0444
- AGCACTCC — higher, 0.221
- GGTATTCA — higher, 0.134
- GTCTTATA — higher, 0.114
- ACAGGGCA — lower, -0.0896
- CAGATAAG — lower, -0.00748
- AAATCACA — lower, -0.0404
- ATTCAGTC — lower, -0.00502
- AAAATAGA — higher, 0.319
- CGATCCCC — lower, -0.0782
- AGCGGCCA — lower, -0.158
- CCCGTGCC — lower, -0.126
- GATGCTAC — lower, -0.0972
- AGCTACAA — lower, 0.0435
- ATGATGGC — lower, -0.143
- ACGAGAGA — lower, -0.233
- CTATGAGA — lower, 0.0291
- CAGGTTAA — lower, -0.243
- AAACTCTA — higher, 0.206
- AAAATCTA — higher, 0.196
- CAGTTATC — lower, 0.0171
- AGTGCTGC — lower, -0.00589
- AACCCATA — lower, 0.0141
- ATCGCCGG — higher, 0.266
- ACCGTCGG — lower, -0.0456
- AGTGACTG — lower, 0.00842
- AGCTCAAC — lower, -0.069
- GCTCCACC — lower, -0.139
- ACCCCTCG — lower, -0.252
- GTTTTTAA — higher, 0.209
- ATAGAATC — higher, 0.158
- AATTACGG — higher, 0.226
- ACATGATG — lower, -0.0261
- AACTCGGT — lower, 0.0362
- AATGAAAT — higher, 0.208
- AACATTGT — higher, 0.206
- AGTATCCC — lower, -0.192
- AAAAAGAA — higher, 0.225
- GCTCTACC — lower, -0.282
- TCTCTGAA — lower, -0.135
- AGCCCGGC — lower, 0.00111
- CCCACAGC — lower, -0.225
- AAAGTACT — lower, -0.0529
- CCAGACCG — lower, 0.0773
- CATCCACC — lower, -0.0255
- GTAAGAAA — lower, -0.00358
- AGCCTCGC — lower, -0.308
- AGCATTGG — lower, -0.159
- AACGAGTC — lower, -0.049
- GTGAGTCA — lower, -0.102
- ATTAGTGA — higher, 0.207
- CATAACCA — lower, -0.11
- GTACAAAC — lower, 0.0652
- GCGTGGAA — lower, -0.0811
- TATGGTAA — lower, 0.0166
- GGCATGTA — lower, -0.0345
- ATAATTAG — higher, 0.235
- AAAGCGTC — lower, -0.181
- TCCCATCA — lower, -0.241
- ACCATGTG — lower, -0.0621
- ACTCTACC — lower, 0.0499
- ATCATGCC — lower, -0.0529
- TGGAAGAA — higher, 0.141
- GGTGGTAA — higher, 0.174
- AACCCAGG — lower, -0.175
- ATTGCGAA — lower, -0.0685
- AGTCGGTA — lower, -0.0112
- GTCAAGTA — lower, -0.196
- CGAAAGTC — lower, 0.0394
- GTCCACTA — lower, -0.0452
- AGTAAAAG — higher, 0.191
- CACTGCGC — lower, -0.235
- AAAGAGTG — lower, 0.0512
- GAGACTCC — higher, 0.207
- CAAAAGTG — lower, -0.13
- CGCTGTCC — lower, -0.0487
- AGGAGAGA — lower, -0.0542
- AGTGTACA — lower, 0.0106
- AGGGGAGA — lower, -0.303
- TTTTAAAA — higher, 0.217
- GTGGCTTA — lower, -0.207
- CGGTAGGC — lower, -0.216
- CTTCCAAC — lower, -0.13
- CGCAGTCC — lower, -0.0495
- GAGGCTTA — lower, 0.0145
- CGTAGCAA — lower, -0.0358
- AAGCTGCT — lower, -0.132
- TAGACGGA — higher, 0.181
- GCGGGACC — lower, -0.0718
- ACCTCACT — lower, 0.0751
- CCTCGAGA — lower, -0.087
- ACACGTAG — lower, -0.166
- TCTCGGCA — lower, 0.00619
- CCCCTTAA — lower, -0.167
- ACACATAA — higher, 0.223
- GCACGCAC — lower, -0.135
- AACGGGAG — higher, 0.15
- TCACGCGA — lower, -0.0127
- CAGATGGG — lower, -0.192
- ACCATCGT — lower, -0.189
- GTCCCGGA — higher, 0.348
- ACCGAATA — lower, 0.0367
- CAAGACGG — lower, -0.196
- AGCACAAA — higher, 0.112
- GAGTTTTA — higher, 0.255
- CACCATGC — lower, -0.315
- CCCGACGA — lower, 0.0804
- CCTAGTAG — lower, -0.196
- ATTGATAA — higher, 0.236
- CCTGGTAA — lower, -0.0626
- CGGCGTTC — lower, 0.0383
- GCGGAATA — higher, 0.217
- GCATGAAC — lower, -0.0057
- CATCGCAC — lower, -0.0701
- CGCGTCTC — lower, -0.064
- TCAGGACA — lower, -0.0448
- GACCGTTA — lower, 0.00635
- CGCATACA — lower, 0.0452
- TATACAGA — higher, 0.154
- GCGGTAGA — lower, -0.17
- ACTCTTAT — higher, 0.249
- GGCGTTCA — lower, 0.0231
- ACCTAAAA — lower, 0.0939
- ACCCACTG — lower, -0.198
- CAGTACCC — lower, -0.117
- CCAGTAGG — lower, -0.302
- ACGAATAG — higher, 0.0991
- CTCCTAGC — lower, -0.221
- TATTACCA — lower, 0.0862
- ACTCTCCG — higher, 0.27
- ACACTACA — lower, 0.0792
- CGTGACGA — lower, -0.0824
- TCCCGCAA — lower, 0.0786
- GATCACGC — higher, 0.193
- GGAGTTGA — higher, 0.29
- ACGGAGGC — lower, -0.0143
- AAGCGCAT — lower, -0.118
- CGAGTCGC — lower, -0.188
- GACAACAC — lower, -0.0824
- ACCAATTA — higher, 0.234
- TATAGTAA — higher, 0.271
- CCCCCCTC — lower, -0.362
- TAGTACGA — higher, 0.135
- ATGCGCGG — lower, -0.0955
- AAACTGCG — lower, -0.0974
